# Data published in the supplement of paper PMC10126150.
# Sequences with one replicate were seen in a single cluster, so their values are uncertain.
# Test system: ATP
# Test: switch fluorescence ratio, 500 uM ATP over buffer (Cy3 cluster intensity, sum of 5 cycles each) (fold (ratio)); higher = stronger signal-on switching upon ATP binding; sequences stand for … in TCGTCGGCAGCGTCAGATGTGTATAAGAGACAGTTTTTTTTTTTTTTTTTTTTTTTTT…TC
# Conditions: aptamer strand: ATP DNA aptamer (quencher-CACCTGGGGGAGTATTGCGGAGGAAGG + anchor), 100 nM annealed; ATP concentration: 500 uM; one replicate
# How it was run: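 Five buffer/ATP imaging cycles were run on Cy3-labelled switching-strand clusters on a modified Illumina MiSeq flow-cell, with NaOH stripping and re-annealing between cycles. In each cycle, clusters annealed to 100 nM quencher-labelled ATP aptamer were imaged in selection buffer, then after 15 min with 500 uM ATP at 22 °C. Per cluster, the fluorescence ratio is summed target-cycle over summed buffer-cycle Cy3 intensity, averaged per switch-domain sequence. Only clusters within 100-1000 RFU were kept.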
# 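Also: ATP exposure 15 min at 22 °C before imaging.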
row,Sequence,switch fluorescence ratio
1,CAAGTCGGGT,0.961
2,TTAATAGGTA,0.959
3,AGATCCACAT,1.03
4,CGGGGGTGAA,1.01
5,CAGGGAAGCA,1.02
6,GCAAAATATT,1.04
7,GTACGGGGCG,1.03
8,TAATTTCTCT,1
9,ATTTGCTC,0.979
10,GGGTTACCTT,1.16
11,GGTGGATATA,1.03
12,CATTTTAAGA,1.04
13,GCGATTACTA,1.02
14,CTTTTACCGA,1
15,GAAATTGAGC,1.02
16,GAAAGCCGCT,0.996
17,TCTACTGCTA,1.42
18,TTTAGTACAC,1.04
19,TCGACCGATG,1.01
20,TTCTTCTTCT,0.94
21,AAAAGTTAAT,0.998
22,CGAATGTTG,0.948
23,TTTGACATAA,0.994

row,Sequence,switch fluorescence ratio
1,AAGCCCGTAT,1
2,CACCGGGCGG,0.973
3,TAATTATACC,0.996
4,TGTCTTGTGT,0.957
5,TAGAGAATTA,1.01
6,AAAGGCTCTC,1.01
7,TGTTTAACGT,1.01
8,TTCGCGGGCA,1.07
9,ATTACGACCT,1.46
10,TTTTACCCCT,1.04
11,ATCTAAGCCA,1.05
12,GTAGTTTGGG,0.985
13,AGCCTAGTAA,1
14,ATATTATGCT,0.943
15,CGATAATTCG,1.02
16,TACCGTGGCT,0.98
17,CCACTTCGAC,1.14
18,GTCTGTAAAT,0.999
19,AACGGTACCC,1.34
20,AGGAAGACAG,0.988
21,GTGTAGCCGG,1
22,TTAACTACTG,0.922
23,AGGCGACGGT,0.989

row,Sequence,switch fluorescence ratio
1,ACAATGCGTT,1.15
2,TTTAGGCCTA,1.01
3,AGATGGAACA,1.05
4,GCACTCGGAG,0.957
5,CTGTGTGCTT,0.998
6,CGTGTCAAGT,0.965
7,TGCCTCAGGT,1.28
8,CTCGAGGATT,1
9,GGACAGAAGC,1.01
10,GTTCGGCTGG,1.02
11,CCTGGTTTA,1.02
12,TTCGTTTATA,0.954
13,CAACGTATAG,1.07
14,GGATCGTGTC,0.945
15,CGCAGGAGTC,1.49
16,CGTGGACTTA,1.04
17,TAACCGCCTA,1.36
18,CTTTTCCAGA,1.01
19,ATAAAGTATC,0.955
20,TGGAAACTAC,1.09
21,AGACGGTG,1
22,GAGACCGGTT,1.03
23,TGTGTACT,1.02

row,Sequence,switch fluorescence ratio
1,TTAAAGCCGA,0.992
2,GAGCTAGGTG,1.24
3,AGGGAACCGA,1.08
4,ATTGGGCCGA,1.01
5,AGTTTATCAG,1.04
6,ATTCCGTAAT,5.05
7,GGAATATCTG,1.06
8,TCTTCTTAC,1.03
9,ACTGTATAC,2
10,GTAAGTTAAA,1.01
11,AAGTCCGAGG,1.03
12,CAACCCCATC,1.05
13,TTTGGCTCGT,0.974
14,TCAGGCCACT,1.07
15,GATCATCAAC,1.01
16,TTTCCTTAGT,1.06
17,AACCATTGTT,0.998
18,GGGCAAAACT,1.14
19,TGGACTGAGG,1.01
20,CATTTAGGAC,0.982
21,TCTCTGGTAA,1.22
22,AGATTAAAAC,0.99
23,ACATTGAAGG,0.991

row,Sequence,switch fluorescence ratio
1,AGGGTACACA,0.968
2,CGAAATGCGA,1.92
3,CCTGGTATAA,1.02
4,TATCAAGAAA,1.02
5,TTAGACATGT,0.985
6,TTGAGCGAAA,1
7,TATTGGGACC,0.952
8,ATTCCTGTTT,1.03
9,CTACGTGCAA,2.27
10,CAGGGTCAC,1.01
11,GTCATATTGT,1
12,CAGCAACGAG,1.31
13,TGATCTTAGT,1.03
14,TTTTCGGAGG,0.976
15,CTTCGGTACT,1.44
16,GTGAGAGAAT,1.05
17,CCCTCAGAAG,1.1
18,GAAGATTCAT,0.994
19,CCCTAGTTAT,1.07
20,TGCTGATCGC,1.13
21,AATCTAGAGC,0.933
22,GGCGACTGGT,0.93
23,AACTGAAAAT,1

row,Sequence,switch fluorescence ratio
1,GGAGTATGTT,0.962
2,TCCCGGGATT,1.09
3,TGGAAGAATG,0.971
4,GCCAGGCTTC,0.994
5,CCAGGATTTA,1.01
6,CTCATTTTTC,0.94
7,ACAAACGCAC,1.71
8,GTTCTGGTCA,1.04
9,GTTTTCGACA,1
10,CGGCTATATC,2.96
11,CCCATGGATT,1.03
12,TGGCTGTCTG,1.01
13,ACTGCGGGTG,1.26
14,TACCATTCCT,1.42
15,AGCCAGATTT,1.03
16,AACGGACTGG,1.03
17,CTTATGGGTC,1
18,GCGTGCACGG,1
19,GATCCTCAAC,1.01
20,TTCATCTTTT,0.994
21,ATAATTCGAC,1.04
22,GTGTCGTGAC,0.978
23,GTTCAAGACA,1.01

row,Sequence,switch fluorescence ratio
1,AATCGTCGA,0.95
2,CCTCCGTGCG,3.96
3,TTAAGCATTC,1.35
4,ATTTGCAAGA,1.05
5,GATATGCATG,0.987
6,GTAGGGAGTC,1
7,AAATACTGGG,1.09
8,TCACGGCCTT,1.01
9,GACAGCGAAT,1.13
10,GCGATAGCAT,0.976
11,GCCGGAGGTG,0.957
12,ATGCTCTCTA,0.954
13,TTCGTATGTC,1.01
14,GCTGGGCCTT,0.977
15,TCATTATGGT,1.02
16,TTCGAACGTT,1.03
17,CTTACTTGGT,1.01
18,TGAGGACATA,0.988
19,TTACGAGTTC,1
